{"source": "PubChem BioAssay AID1347071", "about": "(National Center for Advancing Translational Sciences (NCATS), 2019)", "note": "Among all 410,000 compounds or so, about 260 (0.063%) were called active. The shares of active, inactive and inconclusive entries below differ from those in the screen. The call rests on the fitted dose curve; in most records, active means well fitted activation curve with a large enough effect; inconclusive means small, poorly fitted or top-dose-only effect; inactive means no such curve, though single readings can be large or run the other way. Potencies of inconclusive entries are left out as doubtful fits. Potency means the concentration at half of the fitted maximal effect; tags describe the fitted curve by direction and shape.", "data": [{"assay": "qHTS for compounds that reverse cellular toxicity of Amyloid beta (A-beta) peptide in yeast: Primary Screen; further: nearly all actives have a fitted effect of over 55% in size", "conditions": "yeast expressing A-beta42, growth rescue, OD600, 48 h; growth rescue: at 46.1 µM (top of the series), 0% DMSO, 100% iron-clioquinol control", "how_it_was_run": "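Yeast growth medium received pinned compounds, then yeast cells expressing toxic A-beta were added; plates incubated at 30 C for 48 hr. Growth read as absorbance at 600 nm, normalized to DMSO and equimolar FeCl3 plus clioquinol controls.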", "values": [{"smiles": "CN1C(=O)C(C)(C)c2cc(S(=O)(=O)N3CCCC3C(=O)Nc3ccc(F)cc3)ccc21", "note": "(stereo not drawn)", "growth rescue": "inactive: -1.79%"}, {"smiles": "O=C(Cn1cc(C(F)(F)F)ccc1=O)N1CCN(S(=O)(=O)c2ccc(Cl)cc2)CC1", "Potency": "inconclusive [activator, single point]"}, {"smiles": "C/C(=N\\N=C1\\NC(=O)C(CC(=O)O)S1)c1ccccn1", "note": "(stereo not drawn)", "Potency": "inconclusive [activator, single point]"}, {"smiles": "CCCc1nc2sc3ccccc3c(=O)c2c(=O)n1Cc1ccccc1", "growth rescue": "inactive: -24%"}, {"smiles": "Cc1ccc(CNCC(O)(c2ccc(F)cc2)c2ccc(F)cc2)cc1", "Potency": "inconclusive [activator, full curve, poor fit]"}, {"smiles": "COc1cc(OC)c(NC(=O)C(Cc2ccccc2)NS(=O)(=O)c2cccc3nsnc23)cc1Cl", "note": "(stereo not drawn)", "growth rescue": "inactive: -0.869%"}, {"smiles": "O=C(COC(=O)c1ccco1)Nc1cc(S(=O)(=O)N2CCCCC2)ccc1Cl", "Potency": "inconclusive [activator, partial curve, poor fit]"}, {"smiles": "O=S(=O)(Nc1cccc(Oc2ccc(Cl)cc2)n1)c1ccc(F)cc1", "Potency": "inconclusive [activator, partial curve, poor fit]"}, {"smiles": "O=C(CSc1nc2nccnc2c(=O)n1CCc1c[nH]c2ccccc12)Nc1ccc(F)cc1", "growth rescue": "inactive: 0.261%"}, {"smiles": "Oc1cc(-c2cccnc2)cc2cccnc12", "Potency": "inconclusive [activator, single point]"}, {"smiles": "COc1ccccc1CC(=O)N1CCN(c2ccc(F)cc2)CC1", "Potency": "inconclusive [activator, single point]"}, {"smiles": "Cc1ccc(CNC(=O)CN2CCN(Cc3ccc(C)cc3)C2=O)cc1", "Potency": "inconclusive [activator, partial curve, poor fit]"}, {"smiles": "O=C(Nc1nc2ccccc2s1)C1CC(=O)N(c2ccc(Cl)cc2)C1", "note": "(stereo not drawn)", "Potency": "inconclusive [activator, full curve, poor fit]"}, {"smiles": "O=C(/C=C/c1c(Cl)cccc1Cl)NCCCn1ccnc1", "Potency": "inconclusive [activator, single point]"}, {"smiles": "CCOc1ccc(/C=N/NC(=S)NC2CC3CC2C2C=CCC32)cc1", "note": "(stereo not drawn)", "Potency": "inconclusive [activator, partial curve, poor fit]"}, {"smiles": "O=C(COC(=O)c1cccnc1Cl)NC1CCCc2ccccc21", "note": "(stereo not drawn)", "Potency": "inconclusive [activator, single point]"}, {"smiles": "O=C(CCc1ccccc1O)NC1CCCc2ccccc21", "note": "(stereo not drawn)", "Potency": "inconclusive [activator, single point]"}, {"smiles": "Cc1ccc(NC(=O)C(Cc2ccccc2)N2Cc3ccccc3C2=O)cc1Cl", "note": "(stereo not drawn)", "growth rescue": "inactive: -11.9%"}, {"smiles": "CSC(=S)N/N=C/c1c[nH]c2ccccc12", "Potency": "inconclusive [activator, single point]"}, {"smiles": "O=C(COC(=O)Cc1ccccc1F)NNC(=O)c1ccc(Cl)cc1", "Potency": "inconclusive [activator, single point]"}, {"smiles": "CNC(=O)c1csc(Cc2c(Cl)sc3ccc(Cl)cc23)n1", "Potency": "inconclusive [activator, partial curve]"}, {"smiles": "COc1ccc2c(c1)C(=O)N1[C@H]3c4cc(Cl)ccc4OC[C@@H]3[C@H](c3ccccc3)[C@]1(C)C(=O)N2", "Potency": "inconclusive [activator, full curve, poor fit]"}, {"smiles": "Cc1ccc(NC(=S)N/N=C/c2c(C)[nH]c3ccccc23)cc1", "Potency": "inconclusive [activator, single point]"}, {"smiles": "O=C(CSc1ccc(Cl)cc1)NC1CCCc2ccccc21", "note": "(stereo not drawn)", "Potency": "inconclusive [activator, partial curve, poor fit]"}, {"smiles": "COc1ccc(OC)c([C@@H]2Nc3ccc(C(=O)O)cc3[C@@H]3C=CC[C@@H]32)c1", "Potency": "inconclusive [activator, full curve]"}, {"smiles": "CCNC(=S)N/N=C/c1cccs1", "Potency": "inconclusive [activator, single point]"}, {"smiles": "O=C(c1ccc(Br)cc1)N(Cc1ccco1)c1ccccn1", "growth rescue": "inactive: 1.96%"}, {"smiles": "CC(C)c1ccc(OCC(=O)N(c2ccccn2)C2CCCCC2)cc1", "Potency": "inconclusive [activator, partial curve, poor fit]"}, {"smiles": "O=C1C2ON(c3ccccc3)C(c3ccccn3)C2C(=O)N1c1ccc(Br)cc1", "note": "(stereo not drawn)", "Potency": "inconclusive [activator, single point]"}, {"smiles": "CC(C)C1N(C(N)=S)N=CC1(C)C", "note": "(stereo not drawn)", "Potency": "inconclusive [activator, single point]"}, {"smiles": "COc1ccc(/C=C(\\C#N)C(=O)NC(C)c2ccccc2)cc1O", "note": "(stereo not drawn)", "Potency": "inconclusive [activator, partial curve, poor fit]"}, {"smiles": "COc1ccccc1OCc1nc2ccccc2n1Cc1ccccc1", "Potency": "inconclusive [activator, full curve]"}, {"smiles": "CCCCn1c(SCC(=O)c2ccccc2)nc2sc3c(c2c1=O)CCCC3", "growth rescue": "inactive: -12%"}, {"smiles": "O=C(NC(=S)NCCC1=CCCCC1)c1cncc(Br)c1", "Potency": "inconclusive [activator, partial curve, poor fit]"}, {"smiles": "Cc1c(Cl)cccc1NC(=S)NCc1ccccc1Cl", "Potency": "inconclusive [activator, full curve, poor fit]"}, {"smiles": "COc1ccccc1Cc1c(C(C)(C)C)nc2cc(C)c(Br)c(C)n12", "Potency": "inconclusive [activator, single point]"}, {"smiles": "COc1ccc(Cn2ccnc2SCC(=O)Nc2nc3ccccc3s2)cc1", "Potency": "inconclusive [activator, single point]"}, {"smiles": "CN(C)CCCNc1cc(N2CCN(C3CCCCC3)CC2)c2noc3c2c1C(=O)c1ccccc1-3", "growth rescue": "inactive: -18.6%"}, {"smiles": "CC(C)=C1C2CCC1C1C(=O)N(c3nc(-c4ccc(C(C)C)cc4)c(C)s3)C(=O)C21", "note": "(stereo not drawn)", "Potency": "inconclusive [activator, single point]"}, {"smiles": "O=c1ccc(NS(=O)(=O)c2ccccc2Cl)cn1Cc1ccc(Cl)c(Cl)c1", "Potency": "inconclusive [activator, single point]"}, {"smiles": "CC(=O)Nc1sc(N/N=C/c2ccc(C)cc2)nc1-c1ccc(C)cc1", "Potency": "inconclusive [activator, partial curve]"}, {"smiles": "CNc1nc2sc3c(c2c(=O)n1C)CC(C)(C)SC3", "growth rescue": "inactive: 12.6%"}, {"smiles": "C/C(=N/NC(=S)Nc1ccccc1)c1ccc2c(c1)OCO2", "Potency": "inconclusive [activator, single point]"}, {"smiles": "NC(=O)c1nsc(C(=O)N(Cc2ccco2)C(C(=O)NCc2ccccc2)c2ccc(O)cc2)c1N", "note": "(stereo not drawn)", "Potency": "inconclusive [activator, partial curve]"}, {"smiles": "COC(=O)c1c(C)oc2ccc(N(C(=O)c3ccncc3)S(=O)(=O)c3ccc(OC)cc3)cc12", "growth rescue": "inactive: -4.65%"}, {"smiles": "COc1ccc(/C=C/C(=O)NC(=S)N2CCSCC2)cc1", "Potency": "inconclusive [activator, single point]"}, {"smiles": "c1ccc2[nH]c(SCC3CCCCO3)nc2c1", "note": "(stereo not drawn)", "Potency": "inconclusive [activator, single point]"}, {"smiles": "COc1cc2c(cc1/C=C/C(=O)O)OC(C)C2", "note": "(stereo not drawn)", "growth rescue": "inactive: -5.33%"}, {"smiles": "CC(C)Oc1cccc(C(=O)Nc2ccc(Br)cc2F)c1", "Potency": "inconclusive [activator, partial curve, poor fit]"}, {"smiles": "O=C(Nc1ccccc1)c1cc(C2CCCN(C(=O)c3cccs3)C2)on1", "note": "(stereo not drawn)", "growth rescue": "inactive: -26.8%"}, {"smiles": "CCN(CC)CCNC(Cc1ccccc1)c1cccc(OC)c1", "note": "(stereo not drawn)", "growth rescue": "inactive: -12.8%"}, {"smiles": "COc1ccc(Nc2nc3ccc(OC)cc3s2)cc1", "Potency": "inconclusive [activator, partial curve, poor fit]"}, {"smiles": "C/C(=N\\Nc1nc2ccc(Cl)cc2o1)c1ccccc1", "Potency": "inconclusive [activator, partial curve, poor fit]"}, {"smiles": "O=C(c1cnc2ccc3ccccc3c2c1)c1cc(F)ccc1O", "Potency": "inconclusive [activator, partial curve]"}, {"smiles": "O=C(NCc1ccccc1)c1cccc(COc2ccc3c(c2)CCC3)c1", "Potency": "inconclusive [activator, partial curve, poor fit]"}, {"smiles": "CC1CCN(C2(O)C(=O)Nc3ccc(Br)cc32)CC1", "note": "(stereo not drawn)", "Potency": "inconclusive [activator, single point]"}, {"smiles": "O=C(Nc1cccc(F)c1)C1CCCN(S(=O)(=O)c2cccc3cccnc23)C1", "note": "(stereo not drawn)", "Potency": "inconclusive [activator, partial curve, poor fit]"}, {"smiles": "C=CCn1c(SCC(=O)N2CCc3ccccc3C2)nc2sc(CC)cc2c1=O", "growth rescue": "inactive: -16.8%"}, {"smiles": "O=C(Nc1cccc(Cl)c1)C1CCCN(S(=O)(=O)c2ccc(F)cc2)C1", "note": "(stereo not drawn)", "Potency": "inconclusive [activator, full curve]"}, {"smiles": "O=C(O)c1ccc(CSc2nnc(Cc3ccccc3)o2)cc1", "Potency": "inconclusive [activator, partial curve, poor fit]"}, {"smiles": "CCOC(=O)Cc1cc(OC)c(OC)cc1Cc1cc(OC)c(OC)cc1CC(=O)OCC", "growth rescue": "inconclusive: -79.4% [activator]"}, {"smiles": "Cc1ccc(NC(=O)CSc2nnc(-c3ccco3)o2)c(C)c1", "Potency": "inconclusive [activator, single point]"}, {"smiles": "Cc1cc(=O)oc2cc(OCCc3ccccc3)ccc12", "growth rescue": "inactive: 3.24%"}, {"smiles": "COCCNC(=S)N/N=C(\\C)c1ccc(OC)cc1", "Potency": "inconclusive [activator, single point]"}, {"smiles": "C=C(C)COc1ccc(-c2ncncc2Oc2ccc(OC)cc2)c(O)c1", "Potency": "inconclusive [activator, partial curve, poor fit]"}, {"smiles": "Cc1ccc2c(c1)[C@@H](O)C[C@@H](C)N2N=O", "growth rescue": "inactive: -19.4%"}, {"smiles": "Nc1ccc2c(c1)C(=O)N(CCCCCC(=O)O)C2", "growth rescue": "inactive: -0.698%"}, {"smiles": "O=S(=O)(NCC(c1ccc2c(c1)OCO2)N1CCN(c2ccccc2)CC1)c1ccccc1", "note": "(stereo not drawn)", "growth rescue": "inactive: 16.4%"}]}]}
